Data as given in PubChem BioAssay (NCATS).
Inconclusive results, whose numbers are uncertain, are shown with a selection of clear calls. For some of these results: Potencies of inconclusive entries are doubtful fits and often do not repeat. Active and inactive are the calls of the source. Unless noted, calls follow the shape of the dose curve; as a rule, active = well fitted curve in the direction sought with a large enough effect; inconclusive = small, poorly fitted or top-dose-only effect, or another doubt; inactive = no such curve, though single readings can be large; an effect the other way counts as inactive or inconclusive.

Legend:
[1] = qHTS Assay for Identification of Small Molecule Antagonists for NFkB Signaling Pathway. (AID 624479; calls by dose curve;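 also: pathway stimulated with TNF alpha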); conditions: NFkB pathway reporter cell assay, antagonist mode; series mostly up to 38.3 µM
[2] = qHTS of pediatric cancer cell lines to identify multiple opportunities for drug repurposing: Primary screen for NB-EBc1 cells (AID 1347095); conditions: NB-EBc1 neuroblastoma viability, CellTiter-Glo luminescence, 48 h; series mostly up to 46 µM
Outline: (§1)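 Plated cells (500-1,000 per well, growth media) were allowed to settle for 5 hours, treated with compound dilutions for 48 hours, then lysed with CellTiter-Glo for 15 min at room temperature before luminescence reading.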

[3] = qHTS of pediatric cancer cell lines to identify multiple opportunities for drug repurposing: Primary screen for SK-N-SH cells (AID 1347098); conditions: SK-N-SH viability, CellTiter-Glo luminescence, 48 h; activity change, negative = cytotoxic: at 57 µM (top of the series); also: nearly all actives have a fitted effect of over 65% in size
Outline: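 Cells (500-1,000/well) rested 5 h, then received compounds for 48 h; metabolically active cells were measured by CellTiter-Glo luminescence. Final concentrations spanned up to 46 µM (MIPE, 11-point) or 0.59 nM-46 µM (NPC, 8-point) in primary screens, 11-point in follow-ups.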

[4] = qHTS of pediatric cancer cell lines to identify multiple opportunities for drug repurposing: Primary screen for MG 63 (6-TG R) cells (AID 1347105); conditions: MG 63 (6-TG R) viability, CellTiter-Glo, 48 h; activity change, negative = cytotoxic: at 46 µM (top of the series) unless noted; also: nearly all actives have a fitted effect of over 50% in size
Outline: as §1

[5] = qHTS to identify inhibitors of the type 1 interferon - major histocompatibility complex class I in skeletal muscle: primary screen against the NCATS Mechanism Interrogation Plate v5.0 (MIPE) Libary (AID 1347411); conditions: iHSKM cells + IFN-b, HiBiT-tagged MHC-I luminescence, 24 h; series mostly up to 45.8 µM; also: nearly all actives have a fitted effect of over 65% in size
Outline: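 HLA-B HiBit myoblasts, dexamethasone-free medium + 4 ng/ml IFN-b, 24 h compound, 11-pt 1:3 from 46 uM final. Readout: Nano-Glo HiBiT lytic luminescence after 10 min lysis, RT.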

[6] = Quantitative High-Throughput drug screen in 47 multiple myeloma cell lines against the NCATS MIPE library collection: KMS27_JCRB cell viability assay (AID 1918970); conditions: KMS27 myeloma cells, CellTiter-Glo ATP viability, 48 h; viability (% of DMSO): at 45.8 µM (top of the series); also: nearly all actives have a fitted effect of over 30% in size
Outline: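 ATP-based viability (CellTiter-Glo luminescence) is measured in cells treated 48 h with approved and investigational drugs at 37 °C. Controls are DMSO-only wells for full viability and media-only wells for none.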

[7] = qHTS for identification of novel therapeutic agents for treatment of microphthalmiaassociated transcription factor (MiT) renal cell carcinoma (RCC) (AID 1963991; calls by dose curve); conditions: TFE3-RCC UOK109 viability, CellTiter-Glo, 48 h; active = Z-AUC below -0.8 in all three lines
Outline: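 UOK109/UOK124/UOK145 (TFE3 fusions, three partners); 500 cells/well; MIPE v4.0, 1912 cpds, 11 conc.; 48 h, 37 C; CellTiter-Glo, 15 min RT; lum. Norm.: DMSO 100%, empty 0%.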

[8] = qHTS of pediatric cancer cell lines to identify multiple opportunities for drug repurposing: Primary screen for control Hh wild type fibroblast cells (AID 1347106); conditions: Hh wild-type fibroblast viability, CellTiter-Glo luminescence, 48 h; series mostly up to 46 µM; also: nearly all actives have a fitted effect of over 55% in size
Outline: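 Cells (500-1,000/well) in growth media were settled 5 h at 37 degrees C, then given compounds for 48 h. Viability was read as CellTiter-Glo luminescence. Primary runs used MIPE at 11 points (0.78 nM-46 µM) and NPC at 8 points (0.59 nM-46 µM); follow-ups used 11 points.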

[9] = Quantitative High-Throughput drug screen in 47 multiple myeloma cell lines against the NCATS MIPE library collection: KMS28BM_JCRB cell viability assay (AID 1919874); conditions: CellTiter-Glo ATP, 48 h; series mostly up to 45.8 µM; also: nearly all actives have a fitted effect of over 35% in size
Outline: (§2)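 ATP-based luminescence (CellTiter-Glo, 5 min RT incubation) quantified surviving cells following two days' treatment with MIPE 4.0 agents at 37 °C, 5% CO2.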

MCC-26 = assay: qHTS assay to identify novel small-molecules to repurpose for Merkel cell carcinoma treatment (AID 1296009); conditions: MCC and control cell lines, CellTiter-Glo viability, 72 h; series mostly up to 46 µM; also: nearly all actives have a fitted effect of over 60% in size
Outline: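 Cell viability measured by CellTiter-Glo following 72 hr compound treatment at 37 degree celsius, with NPC and MIPE libraries tested in 8- and 11-point concentration series.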

[10] = qHTS of pediatric cancer cell lines to identify multiple opportunities for drug repurposing: Primary screen for SJ-GBM2 cells (AID 1347091); conditions: SJ-GBM2 viability, CellTiter-Glo luminescence, 48 h; series mostly up to 46 µM
Outline: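 Cell viability, CellTiter-Glo luminescence; 500-1,000 cells/well, 8- or 11-point titration, 48 h compound exposure at 37 degrees C, 5% CO2. Controls: DMSO neutral, bortezomib 2.3 µM final as positive.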

[11] = qHTS of pediatric cancer cell lines to identify multiple opportunities for drug repurposing: Primary screen for NB1643 cells (AID 1347099); conditions: NB1643 neuroblastoma viability, CellTiter-Glo luminescence, 48 h; series mostly up to 46 µM; also: nearly all actives have a fitted effect of over 50% in size
Outline: as §1

[12] = Primary qHTS for inhibitors of nuclear receptor binding SET domain protein 2 (NSD2) in an isogenic RCH-ACV NSD2 p.E1099K mutant (9B) (AID 1645876); conditions: RCH-ACV (leukaemia line) NSD2 E1099K (9B) viability, CellTiter-Glo, 72 h; series mostly up to 44.9 µM; also: nearly all actives have a fitted effect of over 70% in size
[13] = qHTS of pediatric cancer cell lines to identify multiple opportunities for drug repurposing: Primary screen for TC32 cells (AID 1347089); conditions: TC32 Ewing sarcoma viability, CellTiter-Glo luminescence, 48 h; series mostly up to 45.8 µM; also: nearly all actives have a fitted effect of over 60% in size
Outline: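 qHTS, TC32, 48 h drug treatment, CellTiter-Glo luminescence as a proxy for metabolically active cells; primary top concentration 46 µM (MIPE 11-pt, NPC 8-pt); confirmatory 11-pt.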

[14] = Quantitative High-Throughput drug screen in 47 multiple myeloma cell lines against the NCATS MIPE library collection: H1112_PLB cell viability assay (AID 1918967; also: nearly all actives have a fitted effect of over 30% in size); conditions: H1112 myeloma cells viability, ATP luminescence, 48 h; series mostly up to 45.8 µM
Outline: (§3)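 qHTS of the MIPE 4.0 collection: 500 myeloma cells/well, 48 h drug exposure at 37C in 5% CO2, then CellTiter-Glo for 5 min at room temperature before luminescence reading.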

[15] = Quantitative High-Throughput drug screen in 47 multiple myeloma cell lines against the NCATS MIPE library collection: OCIMY7_PLB cell viability assay (AID 1918987); conditions: OCI-MY7 myeloma viability, CellTiter-Glo ATP, 48 h; viability (% of DMSO): at 45.8 µM (top of the series); also: nearly all actives have a fitted effect of over 65% in size
Outline: as §2

[16] = Quantitative High-Throughput drug screen in 47 multiple myeloma cell lines against the NCATS MIPE library collection: OPM2_DSMZ cell viability assay (AID 1919872); conditions: OPM2 myeloma viability, CellTiter-Glo ATP luminescence, 48 h; series mostly up to 45.8 µM; also: nearly all actives have a fitted effect of over 30% in size
Outline: as §3

[17] = Cytotoxicity counterscreen for NFkB agonists and antagonists (AID 624476); conditions: NFkB reporter cell line viability counterscreen; series mostly up to 46.1 µM
[18] = Quantitative High-Throughput drug screen in 47 multiple myeloma cell lines against the NCATS MIPE library collection: MMM1_PLB cell viability assay (AID 1918976); conditions: MMM1 myeloma cells viability, CellTiter-Glo, 48 h; series mostly up to 45.8 µM; also: nearly all actives have a fitted effect of over 35% in size
Outline: as §2

[19] = qHTS of pediatric cancer cell lines to identify multiple opportunities for drug repurposing: Primary screen for Saos-2 cells (AID 1347097); conditions: Saos-2 viability, CellTiter-Glo ATP luminescence, 48 h; activity change, negative = cytotoxic: at 46 µM (top of the series); also: nearly all actives have a fitted effect of over 40% in size
Outline: as §1

Measured: Potency
Potency is read from the fitted curve at half-maximal effect; tags tell the direction and shape of the fitted curve.

COc1ccc(C2=N[C@H](c3ccc(Cl)cc3)[C@H](c3ccc(Cl)cc3)N2C(=O)N2CCNC(=O)C2)c(OC(C)C)c1
active: [2] 743 nM | [3] 3830 nM
inconclusive: [1] 23700 nM [inhibitor, single point] | [4] 23500 nM [cytotoxic, partial curve, poor fit] | [5] 33000 nM [inhibitor, single point] | [6] 5.3 nM [rising, full curve, poor fit] | [7] 11800 nM [falling, partial curve]

CC(NCc1ccc2c(c1)nc(NC(=O)c1ccc(-c3cn[nH]c3)s1)n2CC(C)(C)O)C(C)(C)C (stereo not drawn)
active: [1] 26.6 nM | [3] 961 nM | [4] 2350 nM | [8] 2350 nM | [9] 332 nM | [7] 935 nM | MCC-26 = 1480 nM

O=C1NC2CCCCN2C12CCN(CCCN1c3ccccc3CCc3ccc(Cl)cc31)CC2 (stereo not drawn)
inconclusive: [2] 26600 nM [cytotoxic, single point] | [11] 15000 nM [cytotoxic, single point] | [4] 33500 nM [cytotoxic, single point] | MCC-26 = 21100 nM [inhibitor, single point]
active: [10] 23700 nM

CC#C[C@]1(O)CC[C@H]2[C@@H]3CCC4=CC(=O)CCC4=C3[C@H](c3ccc(N(C)C)cc3)C[C@@]21C
inactive: [1]

O=C(O)c1cc(-c2ccccc2)nc2ccccc12
inconclusive: [2] 27600 nM [cytotoxic, single point] | [12] 27600 nM [inhibitor, partial curve, poor fit]

CN(C)c1cccc(-c2c3c(=O)n(-c4ccccc4Cl)[nH]c3cc(=O)n2C)c1
inconclusive: [5] 18600 nM [inhibitor, partial curve, poor fit]

CC(C)C[C@H](NC(=O)CNC(=O)c1cc(Cl)ccc1Cl)B(O)O
active: [13] 2940 nM | [10] 187 nM | [2] 526 nM | [4] 235 nM | [8] 1050 nM | [5] 104 nM | [12] 148 nM | [14] 105 nM | [6] 118 nM | [15] 41.8 nM | [7] 372 nM

CC(C)(C)c1cnc(CSc2cnc(NC(=O)C3CCNCC3)s2)o1
active: [13] 1310 nM | [5] 262 nM | [12] 209 nM | [16] 235 nM
inconclusive: [11] 187 nM [cytotoxic, full curve] | [4] 1180 nM [cytotoxic, full curve] | [8] 743 nM [cytotoxic, full curve] | [7] 1660 nM [falling, full curve] | MCC-26 = 2090 nM [inhibitor, full curve]

CN(C)CC=CC(=O)Nc1cc2c(Nc3ccc(F)c(Cl)c3)ncnc2cc1O[C@H]1CCOC1
inconclusive: [13] 14700 nM [cytotoxic, partial curve] | [8] 26400 nM [cytotoxic, single point] | [16] 37200 nM [cytotoxic, single point] | MCC-26 = 20900 nM [inhibitor, partial curve]
active: [17] 29600 nM | [1] 13300 nM | [18] 20900 nM | [15] 372 nM

COC(=O)C1=C(C)NC(C)=C(C(=O)OC(C)(C)CN(C)CCC(c2ccccc2)c2ccccc2)C1c1cccc([N+](=O)[O-])c1 (stereo not drawn)
inconclusive: [13] 23600 nM [cytotoxic, single point] | [2] 23700 nM [cytotoxic, single point] | [19] 21100 nM [cytotoxic, single point] | [3] 34400 nM [cytotoxic, single point] | [11] 26600 nM [cytotoxic, single point] | [12] 23700 nM [inhibitor, single point]
inactive: MCC-26
